We go through 24 compounds from the supplement of paper PMC4604168 (melanoma cell lines).

Molecules are shown by their SMILES. The list shows a part of the results. Repeats are few or missing, and single values can be far off.

Assay in all cases: cell count relative to DMSO control; melanoma cells; higher = more viable cells
Common to all, as to conditions: library dose: low library concentration; 72 h

The subject of assay [1] is WM115.
In assay [2] the test system is WM1716.
Assay [3] relates to WM1745.
The test system of assay [4] is WM3526.
Assay [5] deals with WM3619.
Assay [6] concerns WM451Lu.
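Note: cell number obtained by counting DAPI-stained nuclei in high-throughput microscope images with image analysis software, screen run in 1,536-well plates.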

Take `COc1cc([C@@H]2c3cc4c(cc3[C@@H](O[C@@H]3O[C@@H]5CO[C@@H](C)O[C@H]5[C@H](O)[C@H]3O)[C@H]3COC(=O)[C@H]23)OCO4)cc(OC)c1O` [etoposide] + Cc1cc([N+](=O)[O-])ccc1NS(=O)(=O)c1cc(Cl)ccc1Cl [FH535] (first compound 0.02 µM, partner dose 1 µM): the cell count in assay [1] was 89.2%; in assay [2], 88.2%; in assay [3] it was 104%; in assay [4], 109%; in assay [5], 93.4%; in assay [6], 108%.
Turning to `COc1cc([C@@H]2c3cc4c(cc3[C@@H](O[C@@H]3O[C@@H]5CO[C@@H](C)O[C@H]5[C@H](O)[C@H]3O)[C@H]3COC(=O)[C@H]23)OCO4)cc(OC)c1O` [etoposide] + CC1(C)CCC(c2ccc(Cl)cc2)=C(CN2CCN(c3ccc(C(=O)NS(=O)(=O)c4ccc(N[C@H](CCN5CCOCC5)CSc5ccccc5)c(S(=O)(=O)C(F)(F)F)c4)cc3)CC2)C1 [ABT263] (first compound 0.02 µM, partner dose 0.4 µM), the cell count in assay [1] amounted to 81%; in assay [2], 76.5%; in assay [3], 11.6%; in assay [4], 88.1%; in assay [5], 91.3%; in assay [6] it was 84.2%.
Consider `C[C@]1(O)C[C@@H](c2nc(-c3ccc4ccc(-c5ccccc5)nc4c3)c3c(N)nccn32)C1` + CNC(=O)c1cc(Oc2ccc(NC(=O)Nc3ccc(Cl)c(C(F)(F)F)c3)cc2)ccn1 [sorafenib] (first compound 0.4 µM, partner dose 0.4 µM), for which the cell count is 103% in assay [1]; 107% in assay [2]; 70.8% in assay [3]; 94.1% in assay [4]; 91% in assay [5]; 97.8% in assay [6].
Take `Cn1cnc2c(F)c(Nc3ccc(Br)cc3Cl)c(C(=O)NOCCO)cc21` [selumetinib] + O=C(O)c1ccc2c(c1)nc(Nc1cccc(Cl)c1)c1ccncc12 [CX4945] (first compound 0.015 µM, partner dose 0.4 µM): the cell count in assay [1] amounted to 78.5%; in assay [2] it was 108%; in assay [3], 102%; in assay [4], 66.6%; in assay [5], 53.7%; in assay [6] it was 123%.
As for `Cn1cnc2c(F)c(Nc3ccc(Br)cc3Cl)c(C(=O)NOCCO)cc21` [selumetinib] + c1cc(-c2cnn3cc(-c4ccc(OCCN5CCCCC5)cc4)cnc23)ccn1 [Dorsomorphin] (first compound 0.015 µM, partner dose 0.4 µM), the cell count was determined as 105% in assay [1]; 117% in assay [2]; 84.2% in assay [3]; 84.9% in assay [4]; 92.2% in assay [5]; 94.8% in assay [6].
Take `COc1cc([C@@H]2c3cc4c(cc3[C@@H](O[C@@H]3O[C@@H]5CO[C@@H](C)O[C@H]5[C@H](O)[C@H]3O)[C@H]3COC(=O)[C@H]23)OCO4)cc(OC)c1O` [etoposide] + O=C(/C=C/c1cccnc1)NCCCCC1CCN(C(=O)c2ccccc2)CC1 [FK866] (first compound 0.02 µM, partner dose 0.01 µM): the cell count in assay [1] turned out to be 90.1%; in assay [2] it was 92.4%; in assay [3] it was 89.9%; in assay [4], 109%; in assay [5], 69.6%; in assay [6] it was 113%.
Regarding `C[C@]1(O)C[C@@H](c2nc(-c3ccc4ccc(-c5ccccc5)nc4c3)c3c(N)nccn32)C1` + Cn1cc(/C=C2\C(=O)Nc3cccnc32)c2ccccc21 [GW441756] (first compound 0.4 µM, partner dose 0.4 µM), the cell count in assay [1] amounted to 106%; in assay [2], 111%; in assay [3], 75%; in assay [4] it was 82.5%; in assay [5], 90%; in assay [6], 120%.
For the compound `COc1cc([C@@H]2c3cc4c(cc3[C@@H](O[C@@H]3O[C@@H]5CO[C@@H](C)O[C@H]5[C@H](O)[C@H]3O)[C@H]3COC(=O)[C@H]23)OCO4)cc(OC)c1O` [etoposide] + Clc1ccc(Nc2nnc(Cc3ccncc3)c3ccccc23)cc1 [vatalanib] (first compound 0.02 µM, partner dose 2 µM), the cell count in assay [1] was 92.9%; in assay [2] it was 82.6%; in assay [3] it was 104%; in assay [4], 94.5%; in assay [5] it was 98.2%; in assay [6], 99.1%.
Regarding `C[C@]1(O)C[C@@H](c2nc(-c3ccc4ccc(-c5ccccc5)nc4c3)c3c(N)nccn32)C1` + CCN(CC)CCCCNc1ncc2cc(-c3cc(OC)cc(OC)c3)c(NC(=O)NC(C)(C)C)nc2n1 [PD173074] (first compound 0.4 µM, partner dose 0.1 µM), the cell count is 99.7% in assay [1]; 113% in assay [2]; 76.1% in assay [3]; 77.4% in assay [4]; 104% in assay [5]; 67.6% in assay [6].
As for `Cn1cnc2c(F)c(Nc3ccc(Br)cc3Cl)c(C(=O)NOCCO)cc21` [selumetinib] + Clc1ccc(Nc2nnc(Cc3ccncc3)c3ccccc23)cc1 [vatalanib] (first compound 0.015 µM, partner dose 2 µM), the cell count in assay [1] worked out at 90.9%; in assay [2] it was 99.4%; in assay [3], 102%; in assay [4], 79.3%; in assay [5], 97%; in assay [6] it was 110%.
As to `C[C@]1(O)C[C@@H](c2nc(-c3ccc4ccc(-c5ccccc5)nc4c3)c3c(N)nccn32)C1` + O=C(O)c1ccc2c(c1)nc(Nc1cccc(Cl)c1)c1ccncc12 [CX4945] (first compound 0.4 µM, partner dose 0.4 µM), the cell count was determined as 98.6% in assay [1]; 97.4% in assay [2]; 84.7% in assay [3]; 79.2% in assay [4]; 97.4% in assay [5]; 86.8% in assay [6].
Take `CCN(CC)CCNC(=O)c1c(C)[nH]c(/C=C2\C(=O)Nc3ccc(F)cc32)c1C` [sunitinib] + Cn1nnc2c(C(N)=O)ncn2c1=O [temozolomide] (first compound 0.4 µM, partner dose 2 µM): the cell count amounted to 105% in assay [1]; 128% in assay [2]; 80.2% in assay [3]; 86.3% in assay [4]; 110% in assay [5]; 93.1% in assay [6].
Consider `COc1cc([C@@H]2c3cc4c(cc3[C@@H](O[C@@H]3O[C@@H]5CO[C@@H](C)O[C@H]5[C@H](O)[C@H]3O)[C@H]3COC(=O)[C@H]23)OCO4)cc(OC)c1O` [etoposide] + CO[C@H]1C[C@@H]2CC[C@@H](C)[C@@](O)(O2)C(=O)C(=O)N2CCCC[C@H]2C(=O)O[C@H]([C@H](C)C[C@@H]2CC[C@@H](OCCO)[C@H](OC)C2)CC(=O)[C@H](C)/C=C(\C)[C@@H](O)[C@@H](OC)C(=O)[C@H](C)C[C@H](C)/C=C/C=C/C=C/1C [everolimus] (first compound 0.02 µM, partner dose 0.02 µM), for which the cell count was determined as 76.9% in assay [1]; 76.5% in assay [2]; 90.6% in assay [3]; 111% in assay [4]; 62.4% in assay [5]; 106% in assay [6].
For `COc1cc([C@@H]2c3cc4c(cc3[C@@H](O[C@@H]3O[C@@H]5CO[C@@H](C)O[C@H]5[C@H](O)[C@H]3O)[C@H]3COC(=O)[C@H]23)OCO4)cc(OC)c1O` [etoposide] + O=C(CCCCCCC(=O)Nc1ccccc1)NO [vorinostat] (first compound 0.02 µM, partner dose 0.08 µM), the cell count in assay [1] was found to be 89.7%; in assay [2], 105%; in assay [3], 110%; in assay [4] it was 96.9%; in assay [5], 94.2%; in assay [6] it was 77.7%.
Take `COc1cc([C@@H]2c3cc4c(cc3[C@@H](O[C@@H]3O[C@@H]5CO[C@@H](C)O[C@H]5[C@H](O)[C@H]3O)[C@H]3COC(=O)[C@H]23)OCO4)cc(OC)c1O` [etoposide] + O=C(O)C(=O)Nc1sc2c(c1C(=O)O)CCNC2 [TCS401] (first compound 0.02 µM, partner dose 1.66667 µM): the cell count turned out to be 82.3% in assay [1]; 92.8% in assay [2]; 92.8% in assay [3]; 94.2% in assay [4]; 101% in assay [5]; 94.4% in assay [6].
As for `CCN(CC)CCNC(=O)c1c(C)[nH]c(/C=C2\C(=O)Nc3ccc(F)cc32)c1C` [sunitinib] + CC(C)C[C@H](NC(=O)[C@H](Cc1ccccc1)NC(=O)c1cnccn1)B(O)O [Bortezomib] (first compound 0.4 µM, partner dose 0.001 µM), the cell count in assay [1] amounted to 120%; in assay [2] it was 106%; in assay [3], 95.3%; in assay [4], 107%; in assay [5], 49%; in assay [6] it was 110%.
For the compound `C[C@]1(O)C[C@@H](c2nc(-c3ccc4ccc(-c5ccccc5)nc4c3)c3c(N)nccn32)C1` + CO[C@@H]1[C@H](N(C)C(=O)c2ccccc2)C[C@H]2O[C@]1(C)n1c3ccccc3c3c4c(c5c6ccccc6n2c5c31)C(=O)NC4 [Midostaurin] (first compound 0.4 µM, partner dose 0.08 µM), the cell count amounted to 80.1% in assay [1]; 89.8% in assay [2]; 78.5% in assay [3]; 80.2% in assay [4]; 69.9% in assay [5]; 83.5% in assay [6].
Turning to `COc1cc([C@@H]2c3cc4c(cc3[C@@H](O[C@@H]3O[C@@H]5CO[C@@H](C)O[C@H]5[C@H](O)[C@H]3O)[C@H]3COC(=O)[C@H]23)OCO4)cc(OC)c1O` [etoposide] + C[C@]1(c2nc3c(C(N)=O)cccc3[nH]2)CCCN1 [Veliparib] (first compound 0.02 µM, partner dose 1.4 µM), the cell count in assay [1] was 90.6%; in assay [2] it was 87.1%; in assay [3] it was 88.7%; in assay [4], 113%; in assay [5], 90.8%; in assay [6], 94%.
With `Cn1cnc2c(F)c(Nc3ccc(Br)cc3Cl)c(C(=O)NOCCO)cc21` [selumetinib] + C[C@@H](Oc1cc(-c2cnn(C3CCNCC3)c2)cnc1N)c1c(Cl)ccc(F)c1Cl [Crizotinib] (first compound 0.015 µM, partner dose 0.2 µM), the cell count was 91.6% in assay [1]; 116% in assay [2]; 83.3% in assay [3]; 83.6% in assay [4]; 99.1% in assay [5]; 126% in assay [6].
For `CCN(CC)CCNC(=O)c1c(C)[nH]c(/C=C2\C(=O)Nc3ccc(F)cc32)c1C` [sunitinib] + CC1(C)NC(=O)N(c2ccc([N+](=O)[O-])c(C(F)(F)F)c2)C1=O [nilutamide] (first compound 0.4 µM, partner dose 1 µM), the cell count in assay [1] came out at 108%; in assay [2], 157%; in assay [3], 79.5%; in assay [4], 91.2%; in assay [5], 122%; in assay [6], 107%.
In the case of `Cn1cnc2c(F)c(Nc3ccc(Br)cc3Cl)c(C(=O)NOCCO)cc21` [selumetinib] + C=C(c1ccc(C(=O)O)cc1)c1cc2c(cc1C)C(C)(C)CCC2(C)C [Bexarotene] (first compound 0.015 µM, partner dose 2 µM), the cell count in assay [1] was 94.4%; in assay [2] it was 99.2%; in assay [3], 86%; in assay [4], 60.8%; in assay [5], 74.1%; in assay [6] it was 79.8%.
As to `CCN(CC)CCNC(=O)c1c(C)[nH]c(/C=C2\C(=O)Nc3ccc(F)cc32)c1C` [sunitinib] + CN(NC(=O)CC(=O)NN(C)C(=S)c1ccccc1)C(=S)c1ccccc1 [STA4783] (first compound 0.4 µM, partner dose 0.006 µM), the cell count in assay [1] was 76.3%; in assay [2], 97%; in assay [3], 59.2%; in assay [4] it was 88%; in assay [5] it was 121%; in assay [6] it was 90.7%.
Regarding `Cn1cnc2c(F)c(Nc3ccc(Br)cc3Cl)c(C(=O)NOCCO)cc21` [selumetinib] + COC(=O)c1sccc1S(=O)(=O)Nc1ccc(Nc2ccccc2)cc1OC [GSK0660] (first compound 0.015 µM, partner dose 1 µM), the cell count in assay [1] stood at 90%; in assay [2] it was 128%; in assay [3], 103%; in assay [4], 68.7%; in assay [5] it was 56.9%; in assay [6], 93.5%.
On to `CCN(CC)CCNC(=O)c1c(C)[nH]c(/C=C2\C(=O)Nc3ccc(F)cc32)c1C` [sunitinib] + C[C@]1(c2nc3c(C(N)=O)cccc3[nH]2)CCCN1 [Veliparib] (first compound 0.4 µM, partner dose 1.4 µM), for which the cell count in assay [1] was found to be 90.8%; in assay [2] it was 126%; in assay [3], 83.3%; in assay [4], 92.1%; in assay [5], 132%; in assay [6], 113%.
